Source: PubChem BioAssay (NCI)
Several values for one entry are separate records, joined by “and”; a condition that tells them apart may be missing. Identical values can stand only once.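 Test compounds were applied to cells in 96-well plates for 48 hours at 5 doses. The concentration for 50% growth inhibition is given as GI50. Definition used: TGI = concentration required for complete inhibition of growth.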

Test system: NCI-H322M lung
Test: NCI-60 cell line screen, 48 h

**Q.** For `COc1ccccc1NC(=S)Nc1cccc(C)n1`, which TGI is on record?
**A.** > 100 µM

**Q.** With `CCC[C@H](Nc1nc(-c2ccc(NC(=O)NCC)c(OC)c2)ncc1C)c1cccnc1` as the compound, how does the GI50 read?
**A.** 0.0825 µM

**Q.** And the TGI?
**A.** 46.2 µM

**Q.** For `CCC[CH2][Sn]([CH2]CCC)([O]C(=O)c1cccc(F)c1F)[O][Sn]([CH2]CCC)([CH2]CCC)[O]C(=O)c1cccc(F)c1F`, which GI50 is on record?
**A.** 1.3 µM

**Q.** And the TGI?
**A.** 2.57 µM

**Q.** For `C=CCNC(NCC=C)=C(C(Cl)=C(Cl)Cl)[N+](=O)[O-]`, which TGI is on record?
**A.** > 100 µM

**Q.** `CC(C)CC(=O)OC[n+]1cccc(-c2c(COC(=O)NC(C)C)c(COC(=O)NC(C)C)c3n2CCC3)c1` was tested. Which TGI did it give?
**A.** > 100 µM

**Q.** With `C/C=C/C/C=C/CCC(=O)C1OC1C(N)=O` (stereo unspecified) as the compound, how does the TGI read?
**A.** 34.5 µM

**Q.** `BrC12C3C4C5C(C(C43)C13OCCO3)C52` (stereo unspecified) was tested. Which TGI did it give?
**A.** > 100 µM

**Q.** For `OC1OC(c2ccc[nH]2)C(F)(F)C(F)(F)C1(F)F` (stereo unspecified), which TGI is on record?
**A.** > 100 µM

**Q.** `O=C(O/N=C1/CCC/C1=C\c1ccccc1)c1ccccc1` was tested. Which TGI did it give?
**A.** > 100 µM

**Q.** Which TGI does the source give for `Nc1nc(F)nc2c1ncn2C1OC(COP(=O)(O)O)C(O)C1O` (stereo unspecified) here?
**A.** 1100 µM

**Q.** With `O=C(Nc1nc(-c2ccc(Cl)cc2)cs1)c1ccc(O)c(O)c1` as the compound, how does the GI50 read?
**A.** 10.5 µM

**Q.** And the TGI?
**A.** 39.2 µM

**Q.** How did the GI50 turn out when `CC(=O)[CH-]C(C)=O.CC(=O)[CH-]C(C)=O.CC(=O)[CH-]C(C)=O.[Cl-].[Hf+4]` was run?
**A.** > 100 µM

**Q.** What about the TGI of the same compound?
**A.** > 100 µM

**Q.** Which TGI does the source give for `CCCCC1Cc2cc(OC)ccc2-c2nc3cc(OC)ccc3n21` (stereo unspecified) (tested in a mixture with another compound) here?
**A.** 33.8 µM

**Q.** How did the TGI turn out when `COc1ccc(OC)c2sc(N3C(=O)/C(=C/c4ccccc4S)N=C3c3ccccc3)nc12` was run?
**A.** > 100 µM

**Q.** Which TGI does the source give for `O=C1CC(c2ccccc2)NCN1` (stereo unspecified) here?
**A.** > 100 µM

**Q.** `Cc1ccc(NC(=O)/C(=N/NC(=O)CC#N)C2C(=O)N(c3ccccc3)N=C2N)cc1C` (stereo unspecified) was tested. Which TGI did it give?
**A.** > 100 µM

**Q.** How did the TGI turn out when `CCOC(=O)C1C(C(C)C)C2(C#N)C(=N)OC1(C)C2(C#N)C#N` (stereo unspecified) was run?
**A.** > 100 µM

**Q.** Which GI50 does the source give for `Cc1cccc(Oc2ccc(Nc3ncnc4ccc(NC(=O)CN5CCN(C)CC5)cc34)cc2Cl)c1` here?
**A.** 0.67 µM

**Q.** And the TGI?
**A.** 2.11 µM

**Q.** Which results are given for `O=C(CSc1nc2sc3c(c2c(=O)n1-c1ccccc1)CCCCC3)N/N=C/c1ccc(F)cc1`?
**A.** GI50: 4.72 µM; TGI: 70.4 µM

**Q.** `N=C(N)C(N=Nc1ccccc1)C(=N)N` (stereo unspecified) was tested. Which TGI did it give?
**A.** > 100 µM

**Q.** What does the source list for `CCCN1C(=O)/C(=C/c2ccc(O)cc2)SC1=Nc1ccccc1`?
**A.** GI50: 19.1 µM; TGI: 35.7 µM

**Q.** `Cc1c(N)nc([C@H](CC(N)=O)NC[C@H](N)C(N)=O)nc1C(=O)N[C@H](C(=O)N[C@H](C)[C@@H](O)[C@H](C)C(=O)N[C@H](C(=O)NCCc1nc(-c2nc(C(=O)NCCC[S+](C)C)cs2)cs1)[C@@H](C)O)C(OC1OC(CO)C(O)C(O)C1OC1OC(CO)C(O)C(OC(N)=O)C1O)c1cnc[nH]1` (stereo partly specified) was tested. Which GI50 did it give?
**A.** > 25 µM and 33.2 µM

**Q.** What about the TGI of the same compound?
**A.** 24.4 µM and > 25 µM and > 100 µM

**Q.** How did the TGI turn out when `COc1ccc(OC)c2c(=O)cc(-c3ccccc3)[nH]c12` was run?
**A.** > 100 µM

**Q.** With `C/C(=C\c1ccn(-c2ccc(N)cc2C(F)(F)F)n1)[C@@H]1C[C@@H]2O[C@]2(C)CCC[C@H](C)[C@H](O)[C@@H](C)C(=O)C(C)(C)[C@@H](O)CC(=O)O1` as the compound, how does the GI50 read?
**A.** 0.681 µM

**Q.** And the TGI?
**A.** > 11.1 µM

**Q.** Which TGI does the source give for `Cc1nc2c(s/c(=N\N)n2-c2ccccc2)c(=O)[nH]1` here?
**A.** > 100 µM

**Q.** With `CC(C)(C)c1cc(N=NC(=S)NCc2ccccc2)cc(C(C)(C)C)c1O` as the compound, how does the TGI read?
**A.** > 100 µM

**Q.** `CCC1=NC(N/N=C/c2ccccc2O)=N/C1=C\c1ccccc1O` was tested. Which TGI did it give?
**A.** > 80.9 µM

**Q.** Which results are given for `COc1ccc2c(c1)/C(=C/c1c(-c3ccc(C)cc3)nc3sc(C)cn13)C(=O)N2`?
**A.** GI50: > 100 µM; TGI: > 100 µM

**Q.** With `CCCCC1(OC(=O)CCC(=O)O)CCC2(CCC(C)C(C/C=C(C)/C=C/C(O)C(C)/C=C/C(=O)O)O2)OC1CC/C(C)=C/C(=O)O` (stereo unspecified) as the compound, how does the TGI read?
**A.** 13 µM

**Q.** With `Cc1c2c(cc3c1[nH]c1ccccc13)C(c1ccc(F)cc1)=NCC2` as the compound, how does the TGI read?
**A.** 6.79 µM

**Q.** With `O=c1oc2ccccc2c(O)c1C(c1ccc2ccccc2c1)c1c(O)c2ccccc2oc1=O` as the compound, how does the TGI read?
**A.** > 100 µM

**Q.** How did the TGI turn out when `CO/C=C/c1cc2c(cc1C(OC)OC)OCO2` was run?
**A.** > 100 µM

**Q.** With `C=C(CO)[C@H]1CC/C(C)=C/CC/C(C)=C/C/C=C(\C)[C@H](O)C1` as the compound, how does the TGI read?
**A.** > 100 µM

**Q.** For `Cc1cc(S(=O)(=O)/N=C(\N)n2nc(C)c(C)c2C)c(SCc2ccccc2)cc1Cl`, which GI50 is on record?
**A.** > 100 µM

**Q.** And the TGI?
**A.** > 100 µM

**Q.** How did the TGI turn out when `CCC/C(Cl)=N\OC(=O)Nc1ccc(Br)cc1` was run?
**A.** 27.8 µM
